Among all 4,800 compounds or so, about 420 (8.8%) showed an effect of 50% or more. This is one part of the list.
system: Plasmodium falciparum; assay: Confirmatory screen in NF54 nanoGlo assay, in single point, at 2uM, 72h; type: functional, Erythrocyte; settings: timepoint 72 hour

Structure (SMILES) | % Inhibition [%]
CCOC(=O)NC(c1ccccc1F)C1CCCCC1=O (centres undefined) | -14
O=C1OC2(c3ccccc31)C(c1ccccc1)CC(=O)N2Cc1ccccc1 (centres undefined) | -9
CCc1ccc(C2=C[C@@H](c3cccc(OC)c3)n3ncc(C(=O)Nc4ccc(C)cc4)c3N2)cc1 | 70
Cn1ccnc1[C@@H](NC(=O)c1ccnn1C(F)F)C(C)(C)CO | -2
O=C(Cc1ccc(Cl)cn1)Nc1ccnn1[C@H]1CCCc2ccccc21 | -10
CCOc1ccc2ccccc2c1C(=O)Nc1cc(C)nn1-c1nc2c(c(=O)[nH]1)CCC2 | 94
CC(C)[C@H](NC(=O)C(F)(F)F)C(=O)NC1CCN(c2ccccc2Cl)C1=O (some centres undefined) | -6
COc1ccc(-c2nc(-c3cccc(-c4nnc(N)o4)c3)sc2C)c(OC)c1 | -3
CC(C)COc1ccc(/C(N)=N/O)cc1 | -9
O=C1c2ccccc2[C@@H](Nc2ccc3c(c2)OCCO3)N1c1ccccn1 | -17
Cc1cccc(C(=O)ON2C(=O)CCC2=O)c1 | -11
CN1C(=O)c2ccc(S(=O)(=O)NCCn3ncnn3)cc2C1=O | -3
CC(C(=O)N1CCCC1c1cccs1)N(C)Cc1ncnn1C (centres undefined) | -1
CCCCOc1ccc(-c2ccc(C)cc2)cc1[C@H]1Nc2ccccc2C(=O)N1c1ccccc1 | 1
c1cc([C@@H]2CN(Cc3noc(C4CC4)n3)CCO2)cs1 | -7
CCc1ccc(CN2CCC[C@H](c3ncc[nH]3)C2)nc1 | 52
O=C(Cn1ccsc1=O)c1cccc(Cl)c1Cl | -8
CC1CC(NS(=O)(=O)CCCC(F)(F)F)CCN1 (centres undefined) | -4
C[C@H]1C[C@@H](O)CCN1C(=O)c1cccc2sc(C(F)(F)F)nc12 | -3
CCc1c(-c2nc(CCN(C)C(=O)c3ccoc3)no2)[nH]c2ccc(C)cc12 | -10
CCN(CC)c1ccc(N2C(=O)c3c(Br)c(Br)c(Br)c(Br)c3C2=O)cc1 | 5
Cc1ccc(CNC(=O)CCCC(=O)NCc2ccccc2)o1 | -12
CCn1nccc1CNc1ccc(F)cc1F | 1
CCn1cc(-c2cc(C(F)(F)F)nc(N3CCCC3)n2)cn1 | 4
CCOc1ccc(C2c3[nH]c4ccccc4c3C[C@H]3C(=O)N(C4CCN(Cc5ccccc5)CC4)CC(=O)N23)cc1OC (some centres undefined) | 80
COc1ccc(-n2nc(C(=O)N3CCOCC3)c(=O)cc2OC)cc1 | -1

Structure (SMILES) | % Inhibition [%]
O=C(Nc1cccnn1)N[C@@H](c1ccccc1)c1ccc2c(c1)CCCO2 | -9
N#Cc1c2ccc(O)cc2n2ccccc12 | -16
O=C(N[C@@H](CN1CCCC1)c1ccccc1)N1CCC(c2ccn[nH]2)CC1 | 37
COC1(C)CN(c2cnc(C#N)cn2)C1 | -5
COc1ccc2c(c1)CN(C(=O)C1CC3CCC1C3)CC2 (centres undefined) | -3
CCc1c(C)nn(S(=O)(=O)c2ccc3ccccc3c2)c1O | -1
CC(C)(C)OC(=O)NS(=O)(=O)NCc1ccccc1 | 3
[O-]c1c(-c2ccccc2)sc2[n+]1ccc1sc(-c3ccccc3)c([O-])[n+]12 | -14
Cn1c(=O)c2sc(N3CCCC3)nc2n(CC(=O)NC2CCCC2)c1=O | -2
c1ccc(-c2ccc(-n3nnnc3-c3ccccc3)cc2)cc1 | -14
COCCN(CC1CN(Cc2ccsc2)CC1c1cccc(F)c1)C(=O)C(C)C (centres undefined) | 2
O=C1N[C@@H](CC(=O)N2CCN(c3ccccn3)CC2)C(O)=Nc2ccccc21 | -1
O=C(NCc1noc2c1CCCC2)NC[C@H]1CCCC1(F)F | -4
O=C(N[C@@H](Cc1ccccc1)C(=O)NC1CC1)c1cccnc1 | 6
COCCN(CC1CN(Cc2ccc(C)o2)CC1c1cccc(F)c1)C(=O)C(C)C (centres undefined) | -1
CN(C)CCCNCc1ccccc1F | -2
COc1ccc(-c2nn3c(N4CCN(CC=Cc5ccccc5)CC4)cc(C)nc3c2C)cc1OC | 55
c1cnc2nc(-c3ccc4c(c3)OCO4)cn2c1 | -4
O=S1(=O)c2ccccc2N=NN1Cc1ccc(Cl)cc1 | -20
CN(C)c1ccc2cc(NC(=O)CCc3cnn(C)c3)ccc2c1 | -5
O=C(CCc1nc2ccccc2c(=O)[nH]1)Nc1ccc(-n2cnnn2)cc1 | 3
CN1CCN(c2nc(O)c3c(n2)NC(=O)C[C@H]3c2c(F)cccc2Cl)CC1 | -6
Cc1cc(N2C(=O)CCS2(=O)=O)ccc1S(=O)(=O)NC1CCCC1 | 7
Nc1cc(Br)c(C(F)(F)F)cc1NC(=O)C(F)(F)F | -11
Cc1cccc(NC(=O)CCC(=O)OCC(F)(F)C(F)F)c1C | -8
O=c1sc2c(n1Cc1csc(C3CCCCC3)n1)CCCC2 | 1

Structure (SMILES) | % Inhibition [%]
CCc1nc(C)ncc1C(=O)OCc1nccn1Cc1ccccc1 | 7
Cc1ccc(N2C(=O)CN(CC(C)C)[C@H]3CS(=O)(=O)C[C@H]32)cc1 | 6
Cc1cccc2[nH]cc(CCNC(=O)N3CCC4CCC(C3)N4C)c12 (centres undefined) | 8
CC(C)c1ncsc1C(=O)NC(C)(C)C(=O)NCC1CCCC1 | -13
COc1ccnc(CN2CCC[C@H](c3nc(-c4ccccc4)c[nH]3)C2)c1OC | 67
COc1ccccc1CC(=O)N(c1nc(C)cs1)C1CC1 | -9
O=S1(=O)C[C@H](N2CCN(c3ccccc3F)CC2)[C@@H](S(=O)(=O)c2ccccc2)C1 | -7
CCc1nnsc1C(=O)NC1CCCCCC1 | 0
CC(C)c1nc(C(=O)Nc2[nH]c(=O)ncc2F)cs1 | 92
Cn1ccnc1C1CC(NC(=O)c2cc3c(s2)CCC3)CCO1 (centres undefined) | 0
O=c1[nH]c2nccnc2c(=O)n1Cc1ccc(F)cc1 | -11
CCn1cc(CN2C(=O)C3CCCCC3C2=O)c(C)n1 (centres undefined) | -3
CN1CC[C@H](CN(C)Cc2ccc3cc(O)ccc3c2)C1 | 9
CC(C)(CNC(=O)[C@@H]1CCC(=O)N1)C1=CCCC1 | 7
Clc1cccc(N2CCN(Cc3nc(-c4ccco4)no3)CC2)c1 | -6
C=C1CC2C(CC1OC(=O)NC(=O)CN1CCCCC1)C2(C)C (centres undefined) | -13
Cc1sc2nc(-c3ccccn3)nc(NCC(=O)N3CCC(O)CC3)c2c1-c1ccccc1 | 23
Cc1[nH]nc2c1C1(CCCCC1)CC(=O)N2 | -13
c1ccc(COc2nsnc2N2CCOCC2)cc1 | -1
Cc1c(Cl)c(-c2nnc(-c3cccc(C(F)(F)F)c3)o2)nn1C | -21
CCC(=O)OCCN1CCN(CCN(C(=O)CC)c2ccc(C3CCCC3)cc2)CC1 | 3
O=C(c1csc(C(=O)N2CCCC2)n1)N1CCN(Cc2ccccc2)CC1 | -19
Cc1[nH]c2ccccc2c1C1CCN(C(=O)c2ccccc2Br)CC1 | 1
CN(CC(C)(CO)CO)c1ncc(-c2ccccc2)s1 | -2
O=C(Cc1ccccc1F)N1CC(n2cnnc2C2CCOCC2)C1 | -14
CCCN1CCC(NCc2ccc(-c3cccc(Cl)c3Cl)o2)CC1 | 65

Structure (SMILES) | % Inhibition [%]
Cc1cccc(-n2c(=O)c3sccc3n(CC(=O)NCc3ccc(F)cc3F)c2=O)c1C | 2
CC(=O)Nc1ccccc1N(S(=O)(=O)c1ccc2ccccc2c1)S(=O)(=O)c1ccc2ccccc2c1 | 0
CCc1cc(N2CCC(N3C(=O)[C@H]4CCCN4C3=O)CC2)ncn1 | 1
O=C(c1ccoc1)N1CCC[C@H](C(=O)N2CCN(C(c3ccccc3)c3ccccc3)CC2)C1 | -1
Cc1nn(C)c(C)c1-c1cc(C(=O)Nc2cc(F)ccc2F)c2c(C)nn(C)c2n1 | -5
Cc1ccccc1-c1nc2cc(NS(=O)(=O)c3ccccc3)ccc2o1 | 2
COc1ccc2oc(-c3ccc(CNC(=O)c4ccc(C)cc4)cc3)nc2c1 | -3
C[C@@H](CNc1ncc(C(=O)N2CCOCC2)cc1Cl)c1nncn1C | -12
O=C(NCc1ccccc1F)C1CCN(c2cncnc2N2CCCC2)CC1 | 33
Cc1cnc(CC[C@H]2CCCN2C(=O)CCn2ccnc2)n1C | -2
Fc1cccc(Br)c1C1CC(c2cccnc2)Nc2ncnn21 (centres undefined) | -9
O=S(=O)(c1ccccc1)c1cnc2c(Br)c(-c3ccccc3)nn2c1-c1ccccc1 | -17
CCC[C@H](C)c1cc(NS(=O)(=O)c2cnn(CC)c2)[nH]n1 | 5
COc1ccccc1-c1n[nH]cc1CN1CC(=O)NCC12CCCC2 | -8
CCCOc1cccc2c(NC3CCN(CCOC)CC3)ccnc12 | 22
CN1c2ccccc2C(=O)N[C@@H]1c1ccccc1OCc1ccccc1 | -3
O=C(OCc1nccn1Cc1ccccc1)c1cccc2cc[nH]c12 | 3
CC(C)(C)OC(=O)N1C[C@@H](O)CC1=O | -11
CCOC(=O)N1CCc2c(nc(-c3ccc(F)cc3)n(CC(=O)Nc3c(C)cc(C)cc3C)c2=O)C1 | 6
Cc1ccc(-c2nn3nc(COc4cccc5c4OC(C)(C)C5)nc3s2)cc1 | 2
Cc1ccc(O)c(CNCC2(c3ccccc3Cl)CCOCC2)n1 | 99
CCCn1c(C)cnc1C1CN(S(=O)(=O)c2ccc(C)c(F)c2)C1 | -6
CS(=O)(=O)CC1(CON=C(N)c2cccnc2)CC1 | 1
C=CCNC(=O)CN1CCN(CC(=O)N(Cc2ccccc2)[C@@H](C)C2CC2)CC1 | 3
Cc1cnc(Cc2ccccc2)n1CCNC(=O)c1cnn(C)c1 | 0
COc1cc(N2CCn3c(nc4ccccc43)C2)ccc1NC(=O)c1ccc(C)cc1 | 4

— ChEMBL document CHEMBL4888484, “Replenishing the malaria drug discovery pipeline: Screening and hit evaluation of the MMV Hit Generation Library 1 (HGL1) against asexual blood stage Plasmodium falciparum ,using a nano luciferase reporter read-out” (2022)
